Results reported in patent US20090018134A1, “Compounds - 945” (AstraZeneca AB, priority 2007, published 2009).

Target: T1, mTOR (Homo sapiens, UniProt P42345)
T1 construct: FLAG; made in house
Test: In Vitro mTOR Kinase Assay (AlphaScreen), Test (a)(i)
Format: biochemical
Settings: read-out: IC50 versus mTOR kinase
Description: (a)(i) In Vitro mTOR Kinase Assay
The assay used AlphaScreen technology (Gray et al., Analytical Biochemistry, 2003, 313: 234-245) to determine the ability of test compounds to inhibit phosphorylation by recombinant mTOR.
A C-terminal truncation of mTOR encompassing amino acid residues 1362 to 2549 of mTOR (EMBL Accession No. L34075) was stably expressed as a FLAG-tagged fusion in HEK293 cells as described by Vilella-Bach et al., Journal of Biochemistry, 1999, 274, 4266-4272. […]
Each reaction was stopped by the addition of 10 μl of a mixture of EDTA (50 mM), bovine serum albumin (BSA; 0.5 mg/mL) and Tris-HCl pH 7.4 buffer (50 mM) containing p70 S6 Kinase (T389) 1A5 Monoclonal Antibody (Cell Signalling Technology, Catalogue No. 9206B) and AlphaScreen Streptavidin donor and Protein A acceptor beads (200 ng; Perkin Elmer, Catalogue No. 6760002B and 6760137R respectively) were added and the assay plates were left for about 20 hours at room temperature in the dark. The resultant signals arising from laser light excitation at 680 nm were read using a Packard Envision instrument.
Phosphorylated biotinylated peptide is formed in situ as a result of mTOR mediated phosphorylation. […] Upon laser light excitation at 680 nm, the donor bead: acceptor bead complex produces a signal that can be measured. […]
mTOR enzyme inhibition for a given test compound was expressed as an IC50 value.

T1 sequence (P42345 1362-2549): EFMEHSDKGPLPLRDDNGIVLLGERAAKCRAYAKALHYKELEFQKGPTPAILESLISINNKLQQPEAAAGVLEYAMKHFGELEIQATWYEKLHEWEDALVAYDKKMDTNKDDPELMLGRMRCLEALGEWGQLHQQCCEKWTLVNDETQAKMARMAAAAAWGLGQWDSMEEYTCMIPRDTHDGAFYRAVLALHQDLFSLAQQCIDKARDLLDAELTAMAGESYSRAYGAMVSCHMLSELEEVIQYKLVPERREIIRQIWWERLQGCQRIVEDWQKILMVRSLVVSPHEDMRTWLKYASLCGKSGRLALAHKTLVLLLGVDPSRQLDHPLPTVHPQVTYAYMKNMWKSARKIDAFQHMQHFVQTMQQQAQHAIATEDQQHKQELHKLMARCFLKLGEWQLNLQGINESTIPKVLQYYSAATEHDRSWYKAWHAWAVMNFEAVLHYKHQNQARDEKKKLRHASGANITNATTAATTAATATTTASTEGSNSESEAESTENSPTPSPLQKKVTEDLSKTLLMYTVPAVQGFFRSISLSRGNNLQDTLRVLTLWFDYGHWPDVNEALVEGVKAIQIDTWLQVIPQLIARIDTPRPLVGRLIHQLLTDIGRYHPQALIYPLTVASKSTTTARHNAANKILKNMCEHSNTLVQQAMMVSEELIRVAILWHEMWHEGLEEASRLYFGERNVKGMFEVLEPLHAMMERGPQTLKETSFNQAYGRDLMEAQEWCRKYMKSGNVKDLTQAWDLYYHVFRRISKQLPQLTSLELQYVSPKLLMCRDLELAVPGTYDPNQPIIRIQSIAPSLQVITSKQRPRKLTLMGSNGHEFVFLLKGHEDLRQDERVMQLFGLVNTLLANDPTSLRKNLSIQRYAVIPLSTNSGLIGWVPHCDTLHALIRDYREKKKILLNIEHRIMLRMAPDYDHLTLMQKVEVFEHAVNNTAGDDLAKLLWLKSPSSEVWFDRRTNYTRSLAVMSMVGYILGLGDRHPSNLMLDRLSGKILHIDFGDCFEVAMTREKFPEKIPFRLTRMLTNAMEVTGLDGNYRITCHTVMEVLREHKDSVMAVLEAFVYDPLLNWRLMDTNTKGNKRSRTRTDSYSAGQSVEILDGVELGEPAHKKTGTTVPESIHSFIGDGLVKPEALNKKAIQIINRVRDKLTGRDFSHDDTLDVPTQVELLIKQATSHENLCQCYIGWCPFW

- IC50: 59 nM, 5 nM, 23 nM [one passage]
SMILES: C[C@H]1COCCN1c1cc(C2(S(C)(=O)=O)CC2)nc(-c2ccc(NC(=O)Nc3cnn(C)c3)cc2)n1 [Example 2b, 1-[4-[4-[(3S)-3-methylmorpholin-4-yl]-6-(1-methylsulfonylcyclopropyl)pyrimidin-2-yl]phenyl]-3-(1-methylpyrazol-4-yl)urea]

The source holds more than one record for some entries. The list is limited to them. An entry can have further records. Results that share an entry read as repeated measurements on other runs, samples or individuals; a mean can stand among them.
